Reference: patent US20100047327A1, “Adjuvant for Transdermal or Transmucosal Administration and Pharmaceutical Preparation Containing the Same” (priority 2007, published 2010)

System: influenza H3N2
Experiment: Antibody titer after intracutaneous administration of influenza H3N2 antigen plus LA
Settings: influenza H3N2 0.07 μg/head, antigen solution:LA:Tween 80 1:1:0.01; FIG. 6

**Q.** For `CCCCCCCCCCCCO` [Lauryl alcohol, lauryl alcohol], which “antibody titer, intracutaneous (antigen+LA)” value is on record?
**A.** adjuvant effect
